Assay results: PMC6451091
Some of the results follow. At the low end of the ranking, values are background and their order means little.

Target: PU.1 (IVT) (UniProt P17947)
Test: protein-binding microarray (PBM)
Conditions: 20 mM HEPES pH 7.9, 100 mM NaCl, 1 mM DTT, 0.2 mg/mL BSA, 0.02% Triton X-100, 2% milk, 0.4 mg/mL salmon testes DNA; 1 h; temperature not stated; high values mean tight binding; double strand, one strand shown; sequences stand for … in GCCTAGCAC…GTGCTAGGTCTTGATTCGCTTGACGCTGCTG

| Sequence | binding signal [z-score] |
| --- | --- |
| AAAAACAGGAAGTCGCCTCC | 7.73 |
| TCTTTGAGGAAGTGAGAAAG | 4.74 |
| AATATGGGGAAGTGGAACAT | 5.72 |
| ACGCAGGGGAAGTGGCTCCC | 2.95 |
| GTAAAAGGGAAGTGCTACAG | 5.11 |
| GCCAAGAGGAAGTCTACAAA | 3.73 |
| GGGATGGGGAAGTGTCATAC | 4.11 |
| CAGAAGAGGAAGTTCAGAAG | 6.7 |
| TGAAAGAGGAAGTGCAACTA | 7.43 |
| AGAGAGAGGAAGTGAACTCC | 4.57 |
| GATAAGAGGAAGTCGTCTGT | 5.99 |
| CAAGAAAGGAAGTGATGTGA | 2.64 |
| ACACAAAGGAACTGTGCCCC | 0.485 |
| AGAAAGAGGAACTGAGAAAA | 6.2 |
| CGAAAAGGGAAGTGGATGCT | 6.21 |
| TAATTGAGGAACTGCAAATG | 4.82 |
| CGAACGGGGAAGTGCTAAAC | 3.27 |

| Sequence | binding signal [z-score] |
| --- | --- |
| AAAAAGAGGAAGAGGGGACA | 5.23 |
| ACAGAAAGGAACTGTGCCCC | 0.832 |
| TATAAGAGGAAGTCCTCTGT | 5.4 |
| AGAATGAGGAACTGGGAAAG | 4.85 |
| AGAAAGAGGAAGTCTCTGCC | 7.37 |
| TTGAAGAGGAAGTCTTAGAG | 4.05 |
| AGAATGAGGAAATGGACATT | 4.43 |
| TAAGAAGGGAAGTGAACTAA | 3.45 |
| GACAAGAGGAACTGCATTCT | 3.12 |
| CTAATGAGGAACTGGCCCGA | 3.99 |
| ATTATAAGGAAGTCAAACTG | 4.12 |
| GAAAAGGGGAACTGGGTGCC | 5.91 |
| GTGAAGAGGAAGTACAAAGA | 4.94 |
| GTGAGAAGGAAGTGAATGCA | 2.84 |
| TGAAAGGGGAAGTCTTTTTA | 6.55 |
| AAAAGGAGGAAGCGGTGAGC | 3.75 |
